Consider ten variants from the supplement of paper PMC12217912.

Sequences and labels used below:
B1: TEV protease; numbered along this chain (parent)
chain: MGESLFKGPRDYNPISSSICHLTNESDGHTTSLYGIGFGPFIITNKHLFRRNNGTLVVQSLHGVFKVKDTTTLQQHLVDGRDMIIIRMPKDFPPFPQKLKFREPQREERICLVTTNFQTKSMSSMVSDTSCTFPSGDGIFWKHWIQTKDGQCGSPLVSTRDGFIVGIHSASNFTNTNNYFTSVPKNFMELLTNQEAQQWVSGWRLNADSVLWGGHKVFMVKPEEPFQPVKEATQL

The variants in this assay derive from B1. As to the kind of experiment: raw area under fraction-flipped curve 0-4 h after induction (AUC4h, not background-subtracted), DNA-recorder readout of cleavage of the substrate (dimensionless); higher = more cleavage of the substrate by the protease variant. Conditions: temperature: 34 °C; time window: 0-4 h after rhamnose induction.

This is one part of the list. The full chains were built here from the parent and the listed change. Inactive controls read about 0.05.
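Also: Bxb1 expression induced with 0.2% (w/v) L-rhamnose at OD600 near 0.5, cultures sampled hourly, flipped fraction per protease–substrate barcode pair counted by paired-end Illumina sequencing.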

Consider MGESLFKGPRDYNPISSSICHLTNESDGHTTSLYGIGFGPFIITNKHLFRRNNGTLVVQSLHGVFKVKDTTTLQQHLVDGRDMIIIRMPKDFPPFPQKLKFREPQREERICLVTTNFQTKSMSSMVSDTSCTFPSGDGIFWKHWIQTKDGQCGSPLVSTRDGFIVGIHSASNFTNTNNYFTSVPKNFMELLTNQEAQFWVSGWRLNADSVLWGGHKVFMVKPEEPFQPVKEATQL [Q198F], for which the “area with substrate CNLYFQS” value is 0.0623, the “area with substrate DNLYFQS” value amounted to 0.0613, the “area with substrate FNLYFQS” value came to 0.0569 and the “area with substrate GNLYFQS” value came to 0.0679. Besides, the “area with substrate HNLYFQS” value was determined as 0.0632, the “area with substrate INLYFQS” value came to 0.072, the “area with substrate KNLYFQS” value was determined as 0.0579 and the “area with substrate LNLYFQS” value was 0.0577. For the same variant, the “area with substrate MNLYFQS” value stood at 0.0701, the “area with substrate NNLYFQS” value turned out to be 0.0556, the “area with substrate QNLYFQS” value came to 0.0683 and the “area with substrate RNLYFQS” value was 0.0572. Further, the “area with substrate SNLYFQS” value was determined as 0.0406, the “area with substrate TNLYFQS” value stood at 0.0671, the “area with substrate VNLYFQS” value amounted to 0.0632 and the “area with substrate WNLYFQS” value came out at 0.0606. For the same variant, the “area with substrate YNLYFQS” value is 0.0525.

For the variant MGESLFKGPRDYNPISSSICHLTNESDGHTTSLYGIGFGPFIITNKHLFRRNNGTLVVQSLHGVFKVKDTTTLQQHLVDGRDMIIIRMPKDFPPFPQKLKFREPQREERICLVTTNFQTKSMSSMVSDTSCTFPSGDGIFWKHWIQTKDGQCGSPLVSTRDGFIVGIHSASNFTNTNNYFTSVPKNFMELLTNQEAQQWVSGWRLNATSVLWGGHKVFMVKPEEPFQPVKEATQL [D208T], the “area with substrate CNLYFQS” value came to 0.0613, the “area with substrate FNLYFQS” value was 0.0726, the “area with substrate HNLYFQS” value stood at 0.0588 and the “area with substrate KNLYFQS” value turned out to be 0.0684. Also, the “area with substrate LNLYFQS” value came to 0.0584, the “area with substrate NNLYFQS” value came out at 0.0581, the “area with substrate PNLYFQS” value stood at 0.0642 and the “area with substrate RNLYFQS” value came to 0.0571. The “area with substrate TNLYFQS” value stood at 0.0778, the “area with substrate WNLYFQS” value was 0.0553 and the “area with substrate YNLYFQS” value was 0.0665.

As to MGESLFKGPRDYNPISSSICHLTNESDGHTTSLYGIGFGPFIITNKHLFRRNNGTLVVQSLHGVFKVKDTTTLQQHLVDGRDMIIIRMPKDFPPFPQKLKFREPQREERICLVTTNFQTKSMSSMVSDTSCTFPSGDGIFWKHWIQTKDGQCGSPLVSTRDGFIVGIHSASNFTNTNNYFTSVPKNFMELLTNQEAQQWVSGWRLNAMSVLWGGHKVFMVKPEEPFQPVKEATQL [D208M], the “area with substrate CNLYFQS” value is 0.0612, the “area with substrate FNLYFQS” value was found to be 0.0518, the “area with substrate GNLYFQS” value came to 0.0632 and the “area with substrate HNLYFQS” value came out at 0.0463. Besides, the “area with substrate INLYFQS” value was 0.09, the “area with substrate KNLYFQS” value is 0.0648, the “area with substrate LNLYFQS” value was determined as 0.0656 and the “area with substrate NNLYFQS” value turned out to be 0.064. For the same variant, the “area with substrate PNLYFQS” value was found to be 0.0686, the “area with substrate QNLYFQS” value worked out at 0.0553, the “area with substrate RNLYFQS” value turned out to be 0.0638 and the “area with substrate SNLYFQS” value amounted to 0.0609. In addition, the “area with substrate TNLYFQS” value was 0.075, the “area with substrate VNLYFQS” value turned out to be 0.0663, the “area with substrate WNLYFQS” value amounted to 0.0597 and the “area with substrate YNLYFQS” value was found to be 0.0606.

MGESLFKGPRDYNPISSSICHLTNESDGHTTSLYGIGFGPFIITNKHLFRRNNGTLVVQSLHGVFKVKDTTTLQQHLVDGRDMIIIRMPKDFPPFPQKLKFREPQREERICLVTTNFQTKSMSSMVSDTSCTFPSGDGIFWKHWIQTKDGQCGSPLVSTRDGFIVGIHSASNFTNTNNYFTSVPKNFMELLTNQEAQQWVSGWRLNACSVLWGGHKVFMVKPEEPFQPVKEATQL [D208C]: the “area with substrate CNLYFQS” value came out at 0.0638, the “area with substrate GNLYFQS” value amounted to 0.0582, the “area with substrate HNLYFQS” value stood at 0.0521 and the “area with substrate INLYFQS” value worked out at 0.0605. Further, the “area with substrate KNLYFQS” value came out at 0.0614, the “area with substrate LNLYFQS” value was 0.0531, the “area with substrate MNLYFQS” value was 0.0392 and the “area with substrate PNLYFQS” value is 0.0674. Also, the “area with substrate SNLYFQS” value was 0.0683, the “area with substrate TNLYFQS” value was 0.0635, the “area with substrate WNLYFQS” value is 0.0598 and the “area with substrate YNLYFQS” value worked out at 0.0556.

As for MGESLFKGPRDYNPISSSICHLTNESDGHTTSLYGIGFGPFIITNKHLFRRNNGTLVVQSLHGVFKVKDTTTLQQHLVDGRDMIIIRMPKDFPPFPQKLKFREPQREERICLVTTNFQTKSMSSMVSDTSCTFPSGDGIFWKHWIQTKDGQCGSPLVSTRDGFIVGIHSASNFTNTNNYFTSVPKNFMELLTNQEAQQWVSGWRLNAISVLWGGHKVFMVKPEEPFQPVKEATQL [D208I], the “area with substrate CNLYFQS” value was found to be 0.03, the “area with substrate DNLYFQS” value was found to be 0.0602, the “area with substrate FNLYFQS” value worked out at 0.0632 and the “area with substrate GNLYFQS” value is 0.0586. The “area with substrate HNLYFQS” value amounted to 0.0606, the “area with substrate KNLYFQS” value is 0.0589, the “area with substrate LNLYFQS” value was 0.0526 and the “area with substrate NNLYFQS” value was determined as 0.0578. Further, the “area with substrate PNLYFQS” value worked out at 0.0612, the “area with substrate QNLYFQS” value is 0.0717, the “area with substrate RNLYFQS” value was 0.0575 and the “area with substrate TNLYFQS” value was determined as 0.0592. Moreover, the “area with substrate WNLYFQS” value is 0.0545 and the “area with substrate YNLYFQS” value turned out to be 0.0549.

Consider MGESLFKGPRDYNPISSSICHLTNESDGHTTSLYGIGFGPFIITNKHLFRRNNGTLVVQSLHGVFKVKDTTTLQQHLVDGRDMIIIRMPKDFPPFPQKLKFREPQREERICLVTTNFQTKSMSSMVSDTSCTFPSGDGIFWKHWIQTKDGQCGSPLVSTRDGFIVGIHSASNFTNTNNYFTSVPKNFMELLTNQEAQQWVSGWRLNAFSVLWGGHKVFMVKPEEPFQPVKEATQL [D208F], for which the “area with substrate CNLYFQS” value is 0.0662, the “area with substrate HNLYFQS” value turned out to be 0.0711, the “area with substrate INLYFQS” value was 0.0542 and the “area with substrate LNLYFQS” value amounted to 0.0567. The “area with substrate PNLYFQS” value is 0.0559, the “area with substrate SNLYFQS” value stood at 0.0512, the “area with substrate TNLYFQS” value was found to be 0.0629 and the “area with substrate WNLYFQS” value came to 0.0593.

Regarding MGESLFKGPRDYNPISSSICHLTNESDGHTTSLYGIGFGPFIITNKHLFRRNNGTLVVQSLHGVFKVKDTTTLQQHLVDGRDMIIIRMPKDFPPFPQKLKFREPQREERICLVTTNFQTKSMSSMVSDTSCTFPSGDGIFWKHWIQTKDGQCGSPLVSTRDGFIVGIHSASNFTNTNNYFTSVPKNFMELLTNQEAQQWVSGWRLNARSVLWGGHKVFMVKPEEPFQPVKEATQL [D208R], the “area with substrate CNLYFQS” value amounted to 0.0603, the “area with substrate HNLYFQS” value is 0.0475, the “area with substrate KNLYFQS” value was found to be 0.0632 and the “area with substrate LNLYFQS” value was 0.0479. For the same variant, the “area with substrate MNLYFQS” value was found to be 0.0551, the “area with substrate NNLYFQS” value was 0.0594, the “area with substrate PNLYFQS” value worked out at 0.0557 and the “area with substrate QNLYFQS” value came out at 0.0647. In addition, the “area with substrate TNLYFQS” value was 0.054, the “area with substrate WNLYFQS” value is 0.0544 and the “area with substrate YNLYFQS” value was determined as 0.0518.

For MGESLFKGPRDYNPISSSICHLTNESDGHTTSLYGIGFGPFIITNKHLFRRNNGTLVVQSLHGVFKVKDTTTLQQHLVDGRDMIIIRMPKDFPPFPQKLKFREPQREERICLVTTNFQTKSMSSMVSDTSCTFPSGDGIFWKHWIQTKDGQCGSPLVSTRDGFIVGIHSASNFTNTNNYFTSVPKNFMELLTNQEAQQWVSGWRLNALSVLWGGHKVFMVKPEEPFQPVKEATQL [D208L], the “area with substrate CNLYFQS” value came to 0.0622, the “area with substrate INLYFQS” value amounted to 0.054, the “area with substrate LNLYFQS” value was 0.0615 and the “area with substrate QNLYFQS” value is 0.0634. The “area with substrate TNLYFQS” value was determined as 0.0673, the “area with substrate VNLYFQS” value is 0.0616 and the “area with substrate WNLYFQS” value amounted to 0.0641.

As to MGESLFKGPRDYNPISSSICHLTNESDGHTTSLYGIGFGPFIITNKHLFRRNNGTLVVQSLHGVFKVKDTTTLQQHLVDGRDMIIIRMPKDFPPFPQKLKFREPQREERICLVTTNFQTKSMSSMVSDTSCTFPSGDGIFWKHWIQTKDGQCGSPLVSTRDGFIVGIHSASNFTNTNNYFTSVPKNFMELLTNQEAQQWVSGWRLNAHSVLWGGHKVFMVKPEEPFQPVKEATQL [D208H], the “area with substrate CNLYFQS” value came out at 0.0551, the “area with substrate DNLYFQS” value came out at 0.0709, the “area with substrate KNLYFQS” value is 0.0656 and the “area with substrate MNLYFQS” value is 0.0667. Besides, the “area with substrate SNLYFQS” value turned out to be 0.0663 and the “area with substrate WNLYFQS” value came out at 0.0551.

As for MGESLFKGPRDYNPISSSICHLTNESDGHTTSLYGIGFGPFIITNKHLFRRNNGTLVVQSLHGVFKVKDTTTLQQHLVDGRDMIIIRMPKDFPPFPQKLKFREPQREERICLVTTNFQTKSMSSMVSDTSCTFPSGDGIFWKHWIQTKDGQCGSPLVSTRDGFIVGIHSASNFTNTNNYFTSVPKNFMELLTNGEAQQWVSGWRLNADSVLWGGHKVFMVKPEEPFQPVKEATQL [Q194G], the “area with substrate CNLYFQS” value came out at 0.0633, the “area with substrate DNLYFQS” value is 0.0664, the “area with substrate HNLYFQS” value worked out at 0.0607 and the “area with substrate INLYFQS” value came to 0.0845. Also, the “area with substrate KNLYFQS” value came out at 0.0809, the “area with substrate MNLYFQS” value worked out at 0.0745, the “area with substrate PNLYFQS” value is 0.0906 and the “area with substrate SNLYFQS” value came out at 0.0383. Moreover, the “area with substrate TNLYFQS” value is 0.0667, the “area with substrate VNLYFQS” value turned out to be 0.0762 and the “area with substrate WNLYFQS” value is 0.056.
